Some of the results follow.
The sequences below were run against T1, OsWOX13 (Oryza sativa, UniProt Q5QMM3 1-267) (assay: protein-binding microarray (RPBM); PBS, 2% BSA, 51.3 ng/ul salmon testes DNA, 50 uM zinc acetate, 200 nM TF, 25 C, 1 h; high values mean tight binding). Conditions: protein: recombinant; tags: N-terminal polyhistidine and DsRed monomer fusion (pET32a); label: CyDye5-dUTP incorporated in the synthesized complementary strand; 3' TTTTT single-stranded linker to array surface; dsDNA, one strand shown.
T1 sequence: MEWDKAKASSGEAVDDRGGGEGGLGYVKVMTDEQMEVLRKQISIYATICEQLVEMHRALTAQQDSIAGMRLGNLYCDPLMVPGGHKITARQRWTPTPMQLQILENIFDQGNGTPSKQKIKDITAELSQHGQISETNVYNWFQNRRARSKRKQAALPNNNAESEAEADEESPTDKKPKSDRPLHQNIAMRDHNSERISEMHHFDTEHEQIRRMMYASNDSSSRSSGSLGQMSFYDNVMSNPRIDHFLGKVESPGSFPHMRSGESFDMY
Procedure, shortened: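 Binding signal is reported as fluorescence intensity per feature (arbitrary units) from an Axon 4000B scanner. Incubation used 200 nM of each Ni–NTA-purified, N-terminally polyhistidine- and DsRed-fused transcription factor from E. coli BL21-CodonPlus on a double-stranded custom Agilent array for 1 h at 25 °C, with 50 µM zinc acetate in the buffer, followed by washing.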

Row | Sequence | binding signal
1 | TCTGCCAATTAAGCCAGTTGATTAGCTCACAAGGCAATCACGGAGTCACCTAGTGCAG | 48800 fluorescence intensity (a.u.)
2 | TTTATTAGAAAATAATTAATTTATGGATAAAACTTTTATACGGAGTCACCTAGTGCAG | 5710 fluorescence intensity (a.u.)
3 | TCGATTAATCACCGAGCTAATTAAGCTGAGAGCCCGAGATCGGAGTCACCTAGTGCAG | 14000 fluorescence intensity (a.u.)
4 | ATATATATATATATATATATATGTACACCACCAATTAATACGGAGTCACCTAGTGCAG | 10700 fluorescence intensity (a.u.)
5 | GATGTTTGGACACTAATTTAGAGTATTAAACACAGACTACCGGAGTCACCTAGTGCAG | 3740 fluorescence intensity (a.u.)
6 | TTCCTGATAGAGACCATACTTCTCAAAGTAAAATGTTATCCGGAGTCACCTAGTGCAG | 8200 fluorescence intensity (a.u.)
7 | TAAAATTATTGGATATATGTCCAAAGTTAGGTCGTACAGTCGGAGTCACCTAGTGCAG | 4950 fluorescence intensity (a.u.)
8 | GGGGATTGATTCTGGCACAGGCATATAATGCAGTAATATGCGGAGTCACCTAGTGCAG | 44000 fluorescence intensity (a.u.)
9 | AAGACAAATTGCTAACCTTTCTTTTCCATTAATGGAAGAGCGGAGTCACCTAGTGCAG | 10500 fluorescence intensity (a.u.)
10 | GGTAATTCACGTTAACTGAAGAGGAGTTATTGAAACAAAACGGAGTCACCTAGTGCAG | 13800 fluorescence intensity (a.u.)
11 | CTGATTGTTTGTTTAGGATTATGATTTAGTAGTGAGGAGACGGAGTCACCTAGTGCAG | 39800 fluorescence intensity (a.u.)
12 | ATGTTTTGTTTGATTGTGTGCATGCCCTCTTTCTTATGATCGGAGTCACCTAGTGCAG | 6380 fluorescence intensity (a.u.)
13 | CAGTAATTTCTATATAGAAAGTTTACGATCGTCTTGCAGTCGGAGTCACCTAGTGCAG | 11700 fluorescence intensity (a.u.)
14 | GCGCGCGCTAATTGGTGGACTCACCCGCGACACAAGTCAACGGAGTCACCTAGTGCAG | 14900 fluorescence intensity (a.u.)
15 | ATTCAATCAACGGAAAGAGATGAGGGAGGCAAAATGGACTCGGAGTCACCTAGTGCAG | 26500 fluorescence intensity (a.u.)
16 | TTACTCCAATAGCTTGATTGGTATGGGTTCGAGGAGTGATCGGAGTCACCTAGTGCAG | 16600 fluorescence intensity (a.u.)
17 | CACTCAAATAAATTGGAAAATCCCTCCTTTGCTAAATTTCCGGAGTCACCTAGTGCAG | 9760 fluorescence intensity (a.u.)
18 | ACTGTAATTTGTTGTTTTGTTTATCTATGGGCTCATGGAACGGAGTCACCTAGTGCAG | 29000 fluorescence intensity (a.u.)
19 | TGGAGGTGGTGGTGGGAGGAAGGGGAGGAGGAGGCGCGGCCGGAGTCACCTAGTGCAG | 6030 fluorescence intensity (a.u.)
20 | TCCACTAATCAATCGACCACACGTTTCGCCCCGCATGCCCCGGAGTCACCTAGTGCAG | 13900 fluorescence intensity (a.u.)
21 | AAGATGTGATGAGTGACGATGACATATTGGGCCACATAGGCGGAGTCACCTAGTGCAG | 10800 fluorescence intensity (a.u.)
22 | TGTGATTTATATCGTGGAAGATGATGGCTTGGCGGTATAGCGGAGTCACCTAGTGCAG | 36300 fluorescence intensity (a.u.)
23 | AGCTTTAATTGAAGTAAATGTTGGGTTTAATATCCGTTAACGGAGTCACCTAGTGCAG | 23200 fluorescence intensity (a.u.)
24 | AGTTGACAGTTGACAGCGGCGGTGCGCGTGCCGGCCATTGCGGAGTCACCTAGTGCAG | 8850 fluorescence intensity (a.u.)
25 | GAGGGAGTATATGATTGACATTTGGCATGATTATCTTATTCGGAGTCACCTAGTGCAG | 15400 fluorescence intensity (a.u.)
26 | GCGGTGCAGGGCGGTGGCGGCGGCGGGTGGGGCGGTGGCGCGGAGTCACCTAGTGCAG | 7550 fluorescence intensity (a.u.)
27 | CATGCCACAAATTGTATTAATTGCGGCTGTTTGATACGAGCGGAGTCACCTAGTGCAG | 15500 fluorescence intensity (a.u.)

Row | Sequence | binding signal
28 | AATTAATTAACTCCTCAAGCCTAACCACACAATTCGACGCCGGAGTCACCTAGTGCAG | 30200 fluorescence intensity (a.u.)
29 | ATGATAGGATAATCTGGGTAACACATGAAACTTAACTTAGCGGAGTCACCTAGTGCAG | 10100 fluorescence intensity (a.u.)
30 | CCCGTCATGGTTGATTGTTTTAGGGACGTTACAGATATTTCGGAGTCACCTAGTGCAG | 6430 fluorescence intensity (a.u.)
31 | CAGATTAAAATTTCTGCTCAAGCTAGCCATCGATCATCTGCGGAGTCACCTAGTGCAG | 3930 fluorescence intensity (a.u.)
32 | CAGCCAAATTGGACTGGATCAAACCAAGACATAAACTGAACGGAGTCACCTAGTGCAG | 7250 fluorescence intensity (a.u.)
33 | ATAAAATTAATTTAGTGTTGTTTCTATAAATTTAGTCAAACGGAGTCACCTAGTGCAG | 30700 fluorescence intensity (a.u.)
34 | CGAATTTGTCCAAATTACAATCAAATCTTACTGTTTTAAACGGAGTCACCTAGTGCAG | 3820 fluorescence intensity (a.u.)
35 | TACATACATGTTACATAAATTGAATAAATAATTACATAGGCGGAGTCACCTAGTGCAG | 6600 fluorescence intensity (a.u.)
36 | AGAAGTATTTATAATGGTGATTGGTAGATCTTATGATGTTCGGAGTCACCTAGTGCAG | 18200 fluorescence intensity (a.u.)
37 | GATGAGGTGACAGCAAGGGAATTGAACTCCAACTACACCACGGAGTCACCTAGTGCAG | 3490 fluorescence intensity (a.u.)
38 | CATCAATCACCTCAGCGAACCGTTGCGTGAATTTCTCAAGCGGAGTCACCTAGTGCAG | 27600 fluorescence intensity (a.u.)
39 | ATTTCATTAATTTTAATCTAGGGCTCTGGACAACTGCTACCGGAGTCACCTAGTGCAG | 13700 fluorescence intensity (a.u.)
40 | ATAATAAATTTTATCTGCGTTGTACGATATCGATTATTATCGGAGTCACCTAGTGCAG | 5550 fluorescence intensity (a.u.)
41 | GCCGTTGATTTGCAATCAAACGGCCCAGCAACTCGATTAGCGGAGTCACCTAGTGCAG | 28800 fluorescence intensity (a.u.)
42 | AATTAATTACATAAAGATTTAGCGCACAAGAGTGAAGTTGCGGAGTCACCTAGTGCAG | 26500 fluorescence intensity (a.u.)
43 | ATATTTGATCTGACAGTGTAAATTTATCTGATTTGCCTCCCGGAGTCACCTAGTGCAG | 11000 fluorescence intensity (a.u.)
44 | ATTAATGATGATATGAGGCAAAGTGCTGCAAAACGGTATGCGGAGTCACCTAGTGCAG | 8710 fluorescence intensity (a.u.)
45 | AAGACTAGATTGCCCCTCAGACCAAATGCTTCAAACATGACGGAGTCACCTAGTGCAG | 5710 fluorescence intensity (a.u.)
46 | ACTAATGGAACGTTTACCTCGCGATAAACGTATCCAAAATCGGAGTCACCTAGTGCAG | 4020 fluorescence intensity (a.u.)
47 | GCTGCAAGATTGGACAGTCAATGAGAGCTTTCTTTTAGGACGGAGTCACCTAGTGCAG | 11000 fluorescence intensity (a.u.)
48 | TGAAATTGAGTATATACCCAATTCAAATGAGTATGAAATTCGGAGTCACCTAGTGCAG | 6360 fluorescence intensity (a.u.)
49 | TCTCTTAATTGATGTACATATTTGTTATTAACATGTGGACCGGAGTCACCTAGTGCAG | 34000 fluorescence intensity (a.u.)
50 | AGTCGTTTTAATTTTGATTAAAGTAAAACTGTTTTAAATTCGGAGTCACCTAGTGCAG | 6070 fluorescence intensity (a.u.)
51 | ATATATATATATATATATATATAGAGAGAGAGAGAGAGAGCGGAGTCACCTAGTGCAG | 17100 fluorescence intensity (a.u.)
52 | TTAATTGAAATGCCACCTAAGCACCACGTCAGCACACAGACGGAGTCACCTAGTGCAG | 27700 fluorescence intensity (a.u.)
53 | ATTTAATCAATTATTGAGTTAGGATTATATTGAGTTTCTACGGAGTCACCTAGTGCAG | 34900 fluorescence intensity (a.u.)
54 | AACTTTGTAATTATATACAGAGATGGGAAACAAACAAATACGGAGTCACCTAGTGCAG | 4870 fluorescence intensity (a.u.)

From article PMC7819943, “Rice protein-binding microarrays: a tool to detect cis-acting elements near promoter regions in rice”
